We go through 23 sequences from the supplement of paper PMC11417369.

± gives the standard deviation of the averaged measurements. The list shows a part of the results.

The test system of the assay is PfAP2-G AP2 domain (GST-tagged). Description: gcPBM binding intensity (ln(normalized median fluorescence intensity)); higher = stronger DNA binding. In outline: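 DNA-binding domains from P. falciparum, fused to GST and produced in E. coli, were put on an Agilent 4 × 180k double-stranded probe array for 1 h in 1× PBS holding 1% milk, 0.2 mg/ml BSA, 0.5% salmon testes DNA and 0.03% Triton X-100. Probes were primer-extended, 36 bp long and drawn from intergenic genomic regions, with negative controls included. After Alexa488 anti-GST antibody detection and a 488 nm scan, binding intensity was set as the highest Masliner-normalised natural-log median intensity across replicate spots of either probe orientation.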
Take “AAAAAAATAAAAAGGAACGTCTATAGTTAATTTATT [CACACA_negctrl_site919]”: the “gcPBM binding intensity (ln)” value came out at 9.96 ± 0.2.

For “ATGTTGCACAATGTTACACACACAATATATATCGTT [CACACA_site4833]”, the “gcPBM binding intensity (ln)” value came out at 10.3 ± 0.16.

For “TATATTAGAAGAAATTCACACATTCATGTAATCTTA [CACACA_site4706]”, the “gcPBM binding intensity (ln)” value was 9.52 ± 0.16.

Take “AAAAAAAACAGACACACACACAAATACATACACAAA [CACACA_site705]”: the “gcPBM binding intensity (ln)” value was found to be 10.2 ± 0.15.

As for “CCATTTACAAAAAGGAGTACACAAATATATGTTTAA [XGTACX_site649]”, the “gcPBM binding intensity (ln)” value was found to be 11.6 ± 0.93.

Regarding “TTTTTTTTGTTGTTGTTGCACTTGATAGGAATGGCT [GTGCAC_site9701]”, the “gcPBM binding intensity (ln)” value came to 10.2 ± 0.4.

Regarding “TACAAATATGGACACACACACATATTTATATTTATA [CACACA_site6420]”, the “gcPBM binding intensity (ln)” value was found to be 11.1 ± 0.67.

“AAAAAACAGACATACACACACACACGGATATTTATA [CACACA_site7570]”: the “gcPBM binding intensity (ln)” value turned out to be 10.1 ± 0.11.

As to “ATATAAATGTATATGACACACATATATATATATATA [CACACA_site889]”, the “gcPBM binding intensity (ln)” value was found to be 10.2 ± 0.3.

On to “AATATTTATGGGTGCACACAAACATACAGATATATA [CACACA_site5810]”, for which the “gcPBM binding intensity (ln)” value turned out to be 10.7 ± 0.52.

Turning to “TATATATATATCAAGTGTACTTGTGTTTGTAATATT [XGTACX_site8854]”, the “gcPBM binding intensity (ln)” value amounted to 11.4 ± 1.

In the case of “TACTTACAGATAATAACACACAAGAAAAAAATAAAA [CACACA_site4716]”, the “gcPBM binding intensity (ln)” value was 10 ± 0.17.

For the sequence “TATATCAAAATACATACACACATTTGTATATACATT [CACACA_site2696]”, the “gcPBM binding intensity (ln)” value stood at 9.925 ± 0.021.

Take “TTAAATATTTTTAGAGTGCATGTAATAAAAATATAA [GTGCAC_site9414]”: the “gcPBM binding intensity (ln)” value was 10.2 ± 0.26.

“TATATACAGAAACACACACACACATATATATATATA [CACACA_site2247]”: the “gcPBM binding intensity (ln)” value worked out at 10.1 ± 0.27.

“TATCTATATGGGAACACACTCATAAATATATATCTA [CACACA_site4815]”: the “gcPBM binding intensity (ln)” value is 10.1 ± 0.13.

In the case of “TATATTTATTTATATACACACACTTGTATAAAAAAT [CACACA_site2036]”, the “gcPBM binding intensity (ln)” value amounted to 10.1 ± 0.23.

With “TTTTAAAAATAATAAATAAATAAAATTGAAGTTCCA [CACACA_negctrl_site305]”, the “gcPBM binding intensity (ln)” value was found to be 9.63 ± 0.014.

“AAAATAAATAAATACACACACACGAATATATATATA [CACACA_site1683]”: the “gcPBM binding intensity (ln)” value amounted to 10.1 ± 0.33.

“AAAATTTTTAAATATTGTACTATTTATTTTTAGCAT [XGTACX_site6190]”: the “gcPBM binding intensity (ln)” value was 11.2 ± 0.69.

For “GCCTACAGACTTAGTAGTACATGAGAAGATATATAT [XGTACX_site2269]”, the “gcPBM binding intensity (ln)” value came out at 11.5 ± 1.1.

Turning to “AATATGAACGGACACACACACACAAAAAAAAAAAAA [CACACA_site5154]”, the “gcPBM binding intensity (ln)” value was found to be 10.9 ± 0.87.

For “TATATATATATATTTACACACATTCATATAAATTCA [CACACA_site3532]”, the “gcPBM binding intensity (ln)” value is 9.83 ± 0.28.
